Experimental data reported in the RNAGym collection of RNA variant scans (doi:10.7554/elife.90254).
Read counts are not given, so values of variants with three or more changes are uncertain.

B1: LINE1-mini (parent)
chain: GGCAGAGCUCAACACAGCGUGGCAAAGUGGCUGUGGCUAGACUGCC

Variants of: B1
Experiment: self-cleavage, relative activity (ratio to wild type); higher = more cleavage; in vitro, sequencing; the parent is a self-cleaving ribozyme
Work on G1C C8A C13U G22A C31U yielded a self-cleavage of 0.04. G1C G22U G29C C45A showed a self-cleavage of 0.08. G1C G21U G33A G40C A41U gave a self-cleavage of 0.01. Variant G1C C15A G30C C42U has a self-cleavage of 0. With G1U A4U C10A A16G G30C the self-cleavage was 0.01. In the case of G1C G7U G19U G40C, the self-cleavage is reported as 0.04. For G1C C8U A39U A41G, the self-cleavage was 0.01. For G1C C10A G22C C45G, the self-cleavage was 0.02. With G1C C8G U20A A39G the self-cleavage was 0.01. Variant G1C G21U G30C has a self-cleavage of 0.66. With G1C G2C A4G C8U A26G C42U the self-cleavage was 0.03. G1C G33C C42U showed a self-cleavage of 0.01. With G1C C10A G36A U38C the self-cleavage was 0. For G1C C10A G17U C37U, the self-cleavage was 0. With G1C U32C A39C the self-cleavage was 0.01. G1C C13A C18U C31G gave a self-cleavage of 0.03. Work on G1C U9G C13A A25U A41G yielded a self-cleavage of 0.01. For G1C G17C G22C A26U U43A, the self-cleavage was 0.01. Variant G1C G5U G17A has a self-cleavage of 0.02. In the case of G1C C10U A11U U32G U34G A39U, the self-cleavage is reported as 0.01. G1C U20A C42G gave a self-cleavage of 0.01. In the case of G1C C15G G21A G22A A25C G33A, the self-cleavage is reported as 0.01. G1C U9G U20G C23A showed a self-cleavage of 0. With G1C C10A U20C G27U A41C the self-cleavage was 0.02. With G1C C10A A26G G27A G30C the self-cleavage was 0.02. In the case of G1C G2A U9A C10U G17U G30C, the self-cleavage is reported as 0.02. G1C G30U G36C A41C showed a self-cleavage of 0.03. G1C G7C C8U C18A A25C C45A gave a self-cleavage of 0.02. Work on G1C C8U A12C yielded a self-cleavage of 0.01. In the case of G1C C15U G21A G29U G36C A39U, the self-cleavage is reported as 0.01. Work on G1C G7U G29U G40A yielded a self-cleavage of 0. Work on G1C G5C C18U G19A C45G yielded a self-cleavage of 0.01. Variant G1C C31G C37G has a self-cleavage of 0.02. Variant G1C U9G C18U has a self-cleavage of 0.01. In the case of G1C U9G G35U, the self-cleavage is reported as 0.01. In the case of G1C G30U U34G G35U C46G, the self-cleavage is reported as 0.02. G1C G7U C18A G35C C37A gave a self-cleavage of 0.01. G1C U9G A14G C45U showed a self-cleavage of 0.01. For G1C C18G A25C A26U U28G C42A, the self-cleavage was 0. G1C C15A G17C G30C G36A showed a self-cleavage of 0. G1C C18G G21A C37A showed a self-cleavage of 0.05. With G1C G19A A25C G27U the self-cleavage was 0.04. With G1C C18A G19U A41G the self-cleavage was 0.02. For G1C C42A C45A, the self-cleavage was 0.04. For G1C G5U A41U G44C, the self-cleavage was 0. G1C G17A C23U A26U G30A G33A gave a self-cleavage of 0.04. With G1C U9G C10A G19C the self-cleavage was 0. In the case of G1C G2C A4G U28C G33C, the self-cleavage is reported as 0.08. G1U A4U C15U G30A showed a self-cleavage of 0.06. G1C G2A A4U U28C U34A C42G showed a self-cleavage of 0.44. G1C G5C C10G A16G C18U U34C gave a self-cleavage of 0.01. Work on G1C C10U A12U G35C yielded a self-cleavage of 0. For G1U A4C A24U G30U C45G, the self-cleavage was 0.04. With G1C U20C G27C C37U the self-cleavage was 0.01. Variant G1C G2A G33A A39C has a self-cleavage of 0.02. With G1C G5A A12C G36A G44C the self-cleavage was 0.02. In the case of G1C C8U G30U, the self-cleavage is reported as 0. Work on G1C C13U G44A yielded a self-cleavage of 0.03. With G1C C13U G44C the self-cleavage was 0.05. For G1C G2C U34A, the self-cleavage was 0.05. Variant G1C C15G G17U A24C has a self-cleavage of 0.02. G1C C8G U20G U28C G29C G30U U34A gave a self-cleavage of 0.01. In the case of G1C G2C C13A A16C U28A U34C G36A, the self-cleavage is reported as 0.21. Variant G1C C15G G40C has a self-cleavage of 0.01. G1C C10A U32A C45G gave a self-cleavage of 0.01. With G1C G21U C23U the self-cleavage was 0.19. G1C G2C C42U showed a self-cleavage of 0.05. Variant G1C G2U A11C C13A A26G G27U has a self-cleavage of 0.01. G1C G29A G44C C45G gave a self-cleavage of 0.02. Work on G1C C10A C13G C37G yielded a self-cleavage of 0.01. G1U A4C A6U A24U gave a self-cleavage of 0.07. For G1C G19U G21U U28A G36C G44A C45A, the self-cleavage was 0. Work on G1C G2A G19C G21A yielded a self-cleavage of 0.15. For G1C G5A G27A C31U G33A U38A C45A, the self-cleavage was 0. G1C C13G G30U showed a self-cleavage of 0.02. For G1C C10U C15G, the self-cleavage was 0.01. Work on G1C G29C A39U G40C C42G yielded a self-cleavage of 0.03. For G1U A4G A6C, the self-cleavage was 0.03. Work on G1C C42A U43G yielded a self-cleavage of 0.01. Variant G1C C15U G22U A24C C46U has a self-cleavage of 0.05. G1C G5U U38G gave a self-cleavage of 0.01. With G1C G17U A41G the self-cleavage was 0.02. In the case of G1U A4C A12U A41C, the self-cleavage is reported as 0.04. Variant G1C G27U G30A C31G C42G C45A C46A has a self-cleavage of 0.01.
